# According to the RNAGym collection of RNA variant scans (doi:10.1093/nar/gkz1192):
# The source gives no read counts; variants with many changes may rest on few reads.
# B1: CPEB3 Ribozyme (parent)
# chain: UAACAGGGGGCCACAGCAGAAGCGUUCACGUCGCAGCCCCUGUCAGAUUCUGGUGAAUCUGCGAAUUCUGCUGUAUAUCUC
# Variants of: B1
# Test: self-cleavage, relative activity (ratio to wild type); higher = more cleavage; in vitro, sequencing
# Method in brief: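 For each CPEB3 ribozyme variant, relative activity is its cleaved/total read fraction divided by the unmutated ribozyme's. Barcoded error-prone PCR libraries were transcribed by T7 RNA polymerase (5 hours, 37°C) and held in DNase I for 15 min before an EDTA stop, with cleavage occurring throughout. Template-switching reverse transcription and Illumina sequencing were used to read the RNAs. A 5-read minimum applied, and results are the mean of three batches.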
row,Variant,self-cleavage
1,G7A A56G U66A U69C,0.04
2,G7A A64G A75G,0.06
3,G7A A64U U67C,0.06
4,G7A C11A A18U C38A A56G U60A,0.11
5,G7A C12U U25G U41C U43A,0.05
6,G7A C14U U41C,0.1
7,G7A C23G A35U U54G A56U U69A U80A,0.05
8,G7A C23G U26A U76C,0.06
9,G7A C27A A64G,0.07
10,G7A C29G C34G G63U U72C,0.05
11,G7A C37A U54A A57G A64G,0.04
12,G7A C38A G42A C62U U76A,0.04
13,G7A C40G A45U,0.14
14,G7A C50U G53C U67C C68U U80C,0.04
15,G7A G9A A35G U49C U60A,0.05
16,G7A G9A U25A A45G U78C,0.05
17,G7A G9U A21U A65G U69C,0.04
18,G7A G10A A18G U58C U67C U78C U80C,0.05
19,G7A G10A U26C U31C U54A A56G,0.05
20,G7A G10C U41A U48C U51A U72C,0.28
21,G7A G16A A18U A20U,0.38
22,G7A G16U U48C U51A U69G U72A U76A,0.03
23,G7A G19C G30C U41A U60C,0.15
24,G7A G22A A64U,0.16

row,Variant,self-cleavage
1,G7A G22U U25C A64G U72A U80C,0.06
2,G7A G24A U67C U69G,0.05
3,G7A G30U U78C,0.05
4,G7A G33U U67C A75G,0.34
5,G7A G36A A65G U69C,0.04
6,G7A G53A U60A U69C,0.08
7,G7A U25A A47G A57U G63C U74A,0.04
8,G7A U25C A28G U69C,0.34
9,G7A U25C A35G C62A U78C,0.05
10,G7A U25C C40U A56U G70C,0.04
11,G7A U25C U31C C37A U51A G63A,0.07
12,G7A U25C U54C U60C,0.07
13,G7A U26A U60C A64G,0.05
14,G7A U26C A45G,0.1
15,G7A U26C U54C A64G U78C,0.05
16,G7A U26C U54G U67A,0.14
17,G7A U31G A45G U69C,0.06
18,G7A U31G A75U,0.26
19,G7A U41C A45G A57G,0.06
20,G7A U41C G53U U72C,0.27
21,G7A U41C U49A U69C,0.06
22,G7A U49C A64G,0.43
23,G7A U51C U58C A65G,0.08
24,G7A U51C U60C U72C,0.14

row,Variant,self-cleavage
1,G7A U60C A75G,0.09
2,G7A U67A U80C,0.25
3,G7A U78C U80C,0.11
4,G7C A13G A64G,0.06
5,G7C A13U U49C A56G U67C U78A,0.09
6,G7C A15U U72C U78A,0.2
7,G7C A20U A21G A45U A75U,0.13
8,G7C A20U G55A,0.06
9,G7C A20U U48C A75C,0.05
10,G7C A20U U54G U60C U67C,0.13
11,G7C A21U C27U U69A U78C,0.19
12,G7C A28G C34U U54C U76C,0.18
13,G7C A28G C50U,0.07
14,G7C A28G G53C A77G U80C,0.14
15,G7C A28G U48C U60A A64G U72C U80A,0.04
16,G7C A45G U58C C62U C68U U69C,0.11
17,G7C A45G U58C U69C U76A,0.04
18,G7C C11U A15U A65G A77G,0.18
19,G7C C29U U41C A56G,0.09
20,G7C G9A G30U A45G G46U U80C,0
21,G7C G19A A57U G63C A65G U66C U80C,0.04
22,G7C G30U U43C,0.08
23,G7C G33A U58A,0.08
24,G7C G42A G61A C62U U69A A75G,0.05

row,Variant,self-cleavage
1,G7C G53U U72C,0.4
2,G7C U25C U26A U72C,0.5
3,G7C U25C U31C U43A,0.21
4,G7C U25C U48A U54G,0.05
5,G7C U26A A64U U76C,0.06
6,G7C U43C U69C,0.17
7,G7C U48A U58C U60C,0.07
8,G7C U54C C59U,0.19
9,G7U A13G A20U U25C U41A,0.02
10,G7U A13U A15G U69A,0.06
11,G7U A13U U26A A47G U51A G61A U72C,0.05
12,G7U A13U U67A,0.12
13,G7U A15C U54G,0.09
14,G7U A15G U31A A35G A45U,0.04
15,G7U A15U A18G U80A,0.05
16,G7U A18C A35U U43C U67A U72A,0.05
17,G7U A18C G19U U31C U48C,0.16
18,G7U A18G G19U U54A G55U A56G,0.13
19,G7U A18G U48C U49C U67C,0.16
20,G7U A18G U49A,0.27
21,G7U A18G U58C U72C,0.06
22,G7U A18G U72C,0.08
23,G7U A18U U41C U54C C81U,0.05
24,G7U A20G C50G A56G U72C,0.07

row,Variant,self-cleavage
1,G7U A20G G24A,0.19
2,G7U A20G U25C U69A U78A,0.05
3,G7U A20U U26A C37A A45G U49C,0.03
4,G7U A21G A35G U67C U76A U80C,0.07
5,G7U A21G U26C U76A,0.05
6,G7U A21G U51C U54C,0.04
7,G7U A28G U31G,0.15
8,G7U A28U U41A U48C U67C U80C,0.1
9,G7U A35G C38A U66C U72C,0.06
10,G7U A35U U41G U78C,0.33
11,G7U A45G A47G U60A,0.06
12,G7U A45G A47G U66C,0.07
13,G7U A45G A64U,0.15
14,G7U A56G A65G U72C U78G U80A,0.06
15,G7U A56U A57G,0.14
16,G7U A57G U80C,0.08
17,G7U A64G A75G U78C,0.11
18,G7U A64G U66C,0.22
19,G7U C11G U43A G52C A77G,0.06
20,G7U C12U U58C U67A,0.06
21,G7U C14U A15C C44A,0.08
22,G7U C23G U25C U58C U67C U72C,0.06
23,G7U C23U U43A,0.04
24,G7U C27G U54C A57G C79A,0.2

row,Variant,self-cleavage
1,G7U C38A U72C,0.19
2,G7U G16A A45G A77G,0.05
3,G7U G19U A20G C39U,0.14
4,G7U G22C U41A G73C,0.23
5,G7U U25A G33C U49C U66C,0.04
6,G7U U25A U48C A56G U67C,0.09
7,G7U U25C U51C G55A A64C,0.05
8,G7U U25C U58C U72C U74C,0.13
9,G7U U26C A45U A57G U78C,0.04
10,G7U U26C C32U,0.1
11,G7U U31A A35G U58C,0.21
12,G7U U31A U51C A64G U74C,0.18
13,G7U U31G A56U U78A,0.21
14,G7U U41A A45G U80C,0.08
15,G7U U41A U49A G61C,0.12
16,G7U U43C U66C U72C A77G,0.06
17,G7U U48C A64C U66C,0.12
18,G7U U48C U49C U51A U60A U78C,0.08
19,G7U U58C A64G,0.05
20,G7U U69A U76G,0.24
21,G7U U69C U72C U78G U80G,0.12
22,G8A A13C U26C U41A U66A,0.06
23,G8A A13G A18G C32G U41A U43C U48G,0.04
24,G8A A13G A28G,0.39

row,Variant,self-cleavage
1,G8A A13G C34U U43A G53A A64G,0.05
2,G8A A13G U26C,0.13
3,G8A A13G U51C U67C C71A,0.08
4,G8A A13G U69C U76C,0.11
5,G8A A13U A20U C50A G53U A75G,0.04
6,G8A A13U A21G U43C U60G U69A A77G,0.03
7,G8A A13U A28U,0.3
8,G8A A13U G33A A45G U48C A56U,0.1
9,G8A A13U U51C G53A G73A,0.11
10,G8A A13U U54A U60C A65G,0.07
11,G8A A15C A35G A64C,0.11
12,G8A A15G A18G G33U U76A,0.06
13,G8A A15G A18U A56C,0.05
14,G8A A15G A18U G33U,0.13
15,G8A A15G A21U U25G C32U A35C U43C,0.04
16,G8A A15G A28G G33A A56G,0.02
17,G8A A15G A28G U60G,0.26
18,G8A A15G U26A U43C A56U,0.2
19,G8A A15G U26G U41C U76A,0.34
20,G8A A15G U31C A64C,0.05
21,G8A A15G U48C G53C G63U,0.14
22,G8A A15U C29U U48C,0.18
23,G8A A15U G30C U31A A35G U41A U49A,0.04
